Among all 330,000 compounds or so, about 1,500 (0.45%) were called active. This list was built around the results that the source calls inconclusive (neither active nor inactive); the mix of calls is not that of the screen. No stated cut-off is given here; in the data, active means inhibition above about 45% (passing the limit was not always enough); inconclusive means no clear call, values can overlap the other calls.
biological target: Ubiquitin-conjugating enzyme E2 N (Homo sapiens) (UniProt P61088); test: UBC13 polyubiquitin chain formation inhibitors, primary screen, biochemical, TR-FRET, uHTS (AID 485273); conditions: at 20 µM, hits give high values
Chain of UniProt P61088 (P61088 whole entry, looked up): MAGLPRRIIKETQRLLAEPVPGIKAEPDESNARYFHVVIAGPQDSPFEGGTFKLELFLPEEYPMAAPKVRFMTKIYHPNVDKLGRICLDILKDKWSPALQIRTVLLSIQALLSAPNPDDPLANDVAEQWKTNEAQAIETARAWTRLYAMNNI

Row | Structure (SMILES) | inhibition
1 | CC1(C)CC2CC(C)(CN2c2ncnc3ccc(Br)cc23)C1 (stereo unspecified) | inconclusive: 98.4%
2 | C[C@@H]1CC[C@@]2(O[C@@H](CCO)C[C@H](O)[C@H]2O)O1 | inactive: -6%
3 | O=C1Cc2ccccc2Sc2ccc(Cl)cc21 | inconclusive: 62.7%
4 | Cc1ccc(SCc2c(C(=O)N/N=C/c3ccc4c(c3)OCO4)nnn2-c2nonc2N)cc1 | inactive: -4.3%
5 | Cc1ccccc1-c1n[nH]c(=S)o1 | inconclusive: 46.9%
6 | C[C@@H]1O[C@@H](O[C@H]2[C@H](Oc3cc(O)c4c(c3)OC(c3ccc(O)cc3)CC4=O)O[C@H](CO)[C@@H](O)[C@@H]2O)[C@H](O)[C@H](O)[C@H]1O (stereo partly specified) | active: 97.1%
7 | CCOc1ccc(C2C(C#N)=C(N)SC(N)=C2C#N)cc1OC | inconclusive: 79.3%
8 | O=S(=O)(Nc1ccccc1O)c1ccc(Cl)nc1 | inactive: 7.4%
9 | O=S(=O)(CCc1nc2ccccc2[nH]1)c1ccc(Cl)cc1 | inconclusive: 83.9%
10 | CN(C)C=Nc1ccc2nc3c(cc2c1)[nH]c1ccccc13 | inconclusive: 63.9%
11 | O=C(C[n+]1ccc(CCSc2ccc(F)cc2)cc1)c1ccccc1 | active: 72.3%
12 | Cc1c(C)n(Cc2ccccc2)c2ncnc(N)c12 | active: 58.9%
13 | O=S(=O)(Nc1cccnc1)c1cccs1 | inactive: -14.7%
14 | COc1cc(C#Cc2c(C=O)n(C)c3ccccc23)cc(OC)c1 | inconclusive: 70.8%
15 | COc1ccc(OC)c2c1sc(=NC(=O)c1cccc(N3C(=O)CCC3=O)c1)n2C | inconclusive: 74.9%
16 | NNC(=O)c1ccc(CN2C(=O)c3cccc4cccc2c34)cc1 | active: 95.5%
17 | COc1cccc(-c2cc3nc(-c4ccccc4)cc(N4CCC5(CC4)OCCO5)n3n2)c1 | inconclusive: 65.1%
18 | O=C(CNc1ccccc1)NNC1=NCCC1 | inactive: 0.8%
19 | CN(C)CCn1cnc2c(c1=N)C(c1ccccc1)c1ccc3ccccc3c1O2 (stereo unspecified) | active: 48.2%
20 | COc1ccc(C(=O)c2c(-c3ccc(OC)cc3)oc3ccc(-c4ccc(OC)nc4)cc23)cc1 | inconclusive: 84.6%
21 | Cc1cccc2sc(NNC(=O)c3cc(-c4cccs4)nc4ccccc34)nc12 | inconclusive: 96.3%
22 | COc1ccc(NC(=O)c2ccc(-c3ccc(-c4noc(C)n4)cc3C)cc2)cc1N1CCN(C)CC1 | active: 77.8%
23 | CCCOC(=O)CSc1nnc(-c2ccc(Cl)cc2Cl)o1 | inactive: -6.5%

Row | Structure (SMILES) | inhibition
24 | CN1CCN(C2CCN(Cc3ccc(O)c4ncccc34)CC2)CC1 | active: 60.2%
25 | O=C(COC(=O)c1cccs1)Nc1ccc(F)c(F)c1 | inactive: 6.3%
26 | Cc1cnc(NC(=O)c2cc3c(s2)CCCC3)s1 | inactive: 12.1%
27 | O=C(N/C(=C/c1ccc(F)cc1)C(=O)N1CCCCC1)c1ccco1 | inactive: 1.2%
28 | COC(=O)Cc1c(C)c2c(O)cc(C)cc2oc1=O | inconclusive: 54%
29 | COC(=O)C1=C(C)N(Cc2ccccc2)C(=NCCc2c[nH]c3ccccc23)N[C@H]1c1cccc(F)c1 | active: 61.9%
30 | CC(C)c1ccc(NC(=S)Nc2cccc3ccccc23)cc1 | inconclusive: 71.9%
31 | CCOC(=O)CC(=O)CSc1nc(-c2ccccc2)cc(-c2ccc(Cl)cc2)c1C#N | inconclusive: 60%
32 | CCCOc1ccc(/C=N/NC(=O)C(=O)Nc2ccccn2)cc1 | inactive: -6.8%
33 | Cc1ccc(-n2c(=S)[nH]c3c(oc4ccccc43)c2=O)cc1C | inconclusive: 83.6%
34 | COc1cc2ncc(S(=O)(=O)c3ccccc3)c(N3CCCC(C)C3)c2cc1OC (stereo unspecified) | inconclusive: 59.2%
35 | COc1cc(/C=N/NC(=O)c2ccncc2)ccc1OC(=O)c1ccccc1Cl | inactive: 2.3%
36 | CCc1ccc(-c2cc3c(=O)n(CC(=O)NCCCN4CCN(C)CC4)ncn3n2)cc1 | inactive: 4.9%
37 | COc1ccc(OCC(=O)NNC(=O)c2ccccn2)cc1 | active: 68.9%
38 | CCOc1ccc(N(C(=O)c2snc(C(N)=O)c2N)C(C(=O)NCC2CCCO2)c2ccc(C)o2)cc1 (stereo unspecified) | active: 74.2%
39 | NC(=O)NC(CC(=O)NNC(=O)c1ccccn1)c1ccccc1Cl (stereo unspecified) | active: 79.5%
40 | Cc1ccc(N2CC(C(=O)OCc3nnc(-c4ccccc4)o3)CC2=O)cc1 (stereo unspecified) | inactive: 1%
41 | Cc1cc(C)c2c(-n3cccc3)c(C(=O)NNS(=O)(=O)c3ccc(Br)cc3)sc2n1 | inactive: -19.1%
42 | CN(C)CCCNc1cc(O)c2ncccc2c1 | inconclusive: 66.3%
43 | Cc1cccc(N2CCN(c3ccc4cc(S(=O)(=O)N5CCCCC5)ccc4n3)CC2C)c1 (stereo unspecified) | inconclusive: 58.1%
44 | O=C(O)Cc1c(-c2ccccc2Cl)c2cc(Br)ccc2[nH]c1=O | inconclusive: 75.4%
45 | S=c1nc(Cc2ccccc2)[nH]c2ccccc12 | inconclusive: 77.6%
46 | CC1CCCC(NC(=O)CSc2ncnc3ccccc23)C1C (stereo unspecified) | active: 45.8%

Row | Structure (SMILES) | inhibition
47 | CSc1ccc2c(c1)N(CCC1CCCCN1C)c1ccccc1S2 (stereo unspecified) | active: 72.2%
48 | CCc1ccc(/C=C\C(=O)N2CCc3ccccc3C2)cc1 | inconclusive: 86.5%
49 | COc1ccc(-n2nc(C(=O)NCC(=O)Nc3cccc(Cl)c3)c3ccccc3c2=O)cc1 | inconclusive: 87.7%
50 | COc1ccc(C(=O)O)cc1S(=O)(=O)NCCCN1CCCC1=O | inconclusive: 86.1%
51 | N#Cc1c(-c2ccco2)nc(SCc2ccc(F)cc2)[nH]c1=O | inconclusive: 67%
52 | CN1CCN(CCCN(Cc2ccco2)C(=S)Nc2ccc(Cl)cc2)CC1 | inactive: 0.9%
53 | C(=N\NCc1ccccc1)/c1ccc2ncccc2c1 | inconclusive: 89.5%
54 | O=C1CC(NS(=O)(=O)c2cccnc2)CN1c1ccc(Cl)cc1 (stereo unspecified) | inconclusive: 85.4%
55 | COc1ccc(-c2cc(C(=O)NCc3ccco3)c3ccccc3n2)c(OC)c1 | inactive: 5.2%
56 | CNCc1cc(Br)c(OCC(=O)Nc2ccccc2OC)c(OC)c1 | active: 65.2%
57 | Cc1cccc[n+]1C1C(c2ccccc2)C(C#N)=C(C(=C=[N-])C#N)NC1(O)C1CC1 (stereo unspecified) | inconclusive: 56.9%
58 | Cc1cccc(OC(=O)Cn2c(C(F)(F)F)nc3ccccc32)c1 | inactive: -4.3%
59 | CCCCCCCCC(=O)N1CCN(c2cc3c(cc2F)c(=O)c(C(=O)O)cn3CC)CC1 | active: 45.9%
60 | CCCCc1ccc(-c2nc(-c3ccncc3)no2)cc1 | inactive: 1%
61 | Cc1cc(SCC(=O)N(C)C2CCCCC2)nc2ccccc12 | inconclusive: 73%
62 | CCOc1ccccc1N(CC(=O)N(C)Cc1ccccc1)S(=O)(=O)c1ccccc1 | inactive: 1.5%
63 | S=c1nc(COc2ccccc2)[nH]c2ccccc12 | inconclusive: 72.5%
64 | Fc1ccccc1-c1nc(-c2cnccc2C(F)(F)F)no1 | inconclusive: 71.1%
65 | CCC(C(=O)NC1CCCC1)N(C(=O)c1snc(C(N)=O)c1N)c1ccc2c(c1)OCCO2 (stereo unspecified) | active: 86.7%
66 | C#CCOCCOCCOCCNc1nc(N2CCN(C(=O)CCCCCCCCCCNC(=O)[C@H]([C@@H](C)CC)n3cc(CCCCN=C(N)N)nn3)CC2)nc(N2CCN(C(=O)CCCCCCCCCCNC(=O)[C@@H]([C@H](C)O)n3cc(C)nn3)CC2)n1 | active: 123%
67 | COc1ccc(NC(=S)N=Nc2c(O)[nH]c3ccccc23)cc1 | inconclusive: 64.1%
68 | COc1cccc(-n2c(COc3ccc(C)cc3)nnc2SCC(=O)O)c1 | inconclusive: 85.1%
69 | CCN1/C(=C/C=C/C=C/c2sc3ccccc3[n+]2CC)Sc2ccccc21 | inconclusive: 62.4%

Row | Structure (SMILES) | inhibition
70 | COc1ccc2c(C)cc(SCC(=O)NC3CCCC3)nc2c1 | inconclusive: 55%
71 | Cc1ccc2[nH]c(=O)c(N3CCOCC3)c(-c3ccccc3)c2c1 | inconclusive: 49.4%
72 | Cc1cccc(C(=O)OC(C)C(=O)NCC2CCCCC2)c1O (stereo unspecified) | inconclusive: 64.8%
73 | COC(=O)COc1ccc(NC(=O)C2CCCO2)cc1 (stereo unspecified) | inconclusive: 88.2%
74 | CCC(C)c1ccccc1OCCn1ccnc1 (stereo unspecified) | inactive: 4%
75 | Cc1c(CCOC(=O)CC23CC4CC(CC(C)(C4)C2)C3)sc[n+]1CC(=O)c1ccccc1 | active: 63.3%
76 | C=CCn1c(=O)c2ccccc2n2c(SCC(=O)/C(C#N)=C(\C)N)nnc12 | inactive: 6.1%
77 | CCCC(C(=O)NC1CCCC1)N(Cc1ccccc1)C(=O)c1snc(C(N)=O)c1N (stereo unspecified) | inactive: 20.6%
78 | O=C(O)CCCc1ccc2c(c1)CCc1ccccc1-2 | inactive: -5.8%
79 | Cc1oc2cc(OCC(=O)O)ccc2c(=O)c1Oc1ccccc1 | inconclusive: 85.8%
80 | CN(C)CCCNc1nc2sc3c(c2c(=O)n1CCc1ccccc1)CCCCC3 | active: 49.3%
81 | Cc1onc(-c2ccccc2)c1C(=O)Nc1cccc2nsnc12 | active: 49%
82 | CCOc1ccc(-n2c(SCc3ccc([N+](=O)[O-])cc3)nnc2-c2ccc(OC)cc2)cc1 | inactive: -3.8%
83 | Cc1ccc(NC(=O)COc2ccccc2)c(NC(=O)c2ccco2)c1 | inactive: 4.4%
84 | O=C(COC(=O)c1ccccc1O)NC(=O)NCc1ccccc1 | inconclusive: 59.4%
85 | COc1ccccc1Cn1c(=S)[nH]c2ccc(F)cc2c1=O | inconclusive: 78.7%
86 | CC(=O)c1cnc2ncnn2c1C | inactive: 6%
87 | CCc1nnc(NC(=O)CSc2nc(-c3ccccc3)nc3ccccc23)s1 | inconclusive: 49%
88 | Cc1ccc(-c2nc(=S)c3c(n2CC2CCCO2)CC(C)(C)OC3)cc1 (stereo unspecified) | inconclusive: 53.2%
89 | CCn1c(=S)[nH]c2cc(Cl)ccc21 | inconclusive: 73.8%
90 | CC(Sc1ccc(S(=O)(=O)N2CCOCC2)cn1)c1ccccc1Cl (stereo unspecified) | inactive: 7%
91 | O=C(Nc1ccc(Oc2cccnc2)cc1)c1ccc([N+](=O)[O-])cc1 | inactive: -0.7%

Source: PubChem BioAssay AID485273 (Sanford-Burnham Center for Chemical Genomics, 2010)
